We go through 17 compounds from PubChem BioAssay AID1745853 (National Center for Advancing Translational Sciences (NCATS), 2022).

Common to all, as to assay: Primary Screen for Target Class Profiling of Small Molecule Inhibitors of Methyltransferases
Assay [1] concerns the target Glycine N-methyltransferase (Homo sapiens) (UniProt Q14749). Conditions: purified enzyme, MTase-Glo SAH luminescence; measured here: GNMT inhibition; at 40 µM; stronger effect = lower value. The essentials: (§1)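 Each enzyme was assayed with SAM and its substrate. SAH formation detected by MTase-Glo luminescence; single-point 40 uM screen[…].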
Assay [2] concerns the target Guanidinoacetate N-methyltransferase (Homo sapiens) (UniProt Q14353). Conditions: purified enzyme, MTase-Glo SAH luminescence; measured here: GAMT inhibition; at 40 µM; stronger effect = lower value. In a few lines:
as §1

Assay [3] deals with Histamine N-methyltransferase (Homo sapiens) (UniProt P50135). Conditions: purified enzyme, MTase-Glo SAH luminescence; measured here: HNMT inhibition; at 40 µM; stronger effect = lower value. In a few lines:
as §1

Assay [4] concerns the target Nicotinamide N-methyltransferase (Homo sapiens) (UniProt P40261). The conditions noted are these: purified enzyme, MTase-Glo SAH luminescence; measured here: NNMT inhibition; at 40 µM; stronger effect = lower value. The essentials: as §1
Assay [5] addresses Phenylethanolamine N-methyltransferase (Homo sapiens) (UniProt P11086). Conditions: purified enzyme, MTase-Glo SAH luminescence; measured here: PNMT inhibition; at 40 µM; stronger effect = lower value. In a few lines: as §1

The other results are listed elsewhere or left out. Further columns of the screen follow, without active or inactive calls.
% is scaled to controls: 0 for no effect and ±100 for the full control effect.

For the compound `CCOC(=O)c1cc2n(n1)CC(C)(C(=O)NCc1ccccc1)N(c1ccc(C)cc1)C2=O` (stereo not given), the activity change, negative = inhibition in assay [1] is 3.71%; in assay [2] it was 0%; in assay [3], 10.2%; in assay [4], 8.82%; in assay [5], 3.08%.

`Cc1onc(C(=O)NCCc2noc(-c3ccncc3)n2)c1Cn1cc(Cl)cn1`: the activity change, negative = inhibition is -4.91% in assay [1]; -1.11% in assay [2]; -0.706% in assay [3]; -4.19% in assay [4]; 11% in assay [5].

Turning to `CCC(C)NC(=O)c1ccc2c(=O)n(CCC(C)C)c3nn(CC(=O)Nc4ccccc4)c(=O)n3c2c1` (stereo not given), the activity change, negative = inhibition in assay [1] is -1.77%; in assay [2], 1.37%; in assay [3] it was -3.33%; in assay [4], -4.23%; in assay [5], -4.2%.

On to `Cc1ccc(CCN2C(=O)Cn3cccc3C2C(=O)NC2CCCCC2C)cc1` (stereo not given), for which the activity change, negative = inhibition was -2.27% in assay [1]; 5.64% in assay [2]; -0.515% in assay [3]; 2.96% in assay [4]; -5.1% in assay [5].

In the case of `CCc1nccc(CN2CCCC(CC3CC3)(C(=O)O)C2)n1` (stereo not given), the activity change, negative = inhibition in assay [1] was -2.07%; in assay [2], -5.04%; in assay [3], -2.82%; in assay [4], -14.5%; in assay [5] it was -3.01%.

Consider `Cc1ccc(N2C(=O)c3cc(-c4ccco4)nn3CC2(C)C(=O)NC2CCCCC2)cc1C` (stereo not given), for which the activity change, negative = inhibition in assay [1] is -11.4%; in assay [2], -11.3%; in assay [3] it was 4.42%; in assay [4] it was -5.16%; in assay [5] it was -2.77%.

In the case of `CC(C)n1cc(CN2CCC(CO)(Cc3ccccc3Cl)CC2)cn1`, the activity change, negative = inhibition is -3.29% in assay [1]; -3.68% in assay [2]; -36.8% in assay [3]; -11.3% in assay [4]; -8.86% in assay [5].

For `N[C@@H](CCCC(=O)O)C(=O)O`, the activity change, negative = inhibition is 3.61% in assay [1]; 9.15% in assay [2]; 8.1% in assay [3]; -8.82% in assay [4]; -3.54% in assay [5].

With `Cc1cccc(N2CCN(C(=O)CCc3nnc4n(CCc5ccccc5)c(=O)c5ccccc5n34)CC2)c1C`, the activity change, negative = inhibition in assay [1] was -2.71%; in assay [2], 0%; in assay [3] it was 0.158%; in assay [4], -10.5%; in assay [5] it was -4%.

On to `COCCN1CCCCCC(O)c2cc(C(=O)NCc3ccc(F)cc3)ccc21` (stereo not given), for which the activity change, negative = inhibition in assay [1] is -7.65%; in assay [2], -1.83%; in assay [3], -12%; in assay [4], -2.47%; in assay [5] it was -4.82%.

As to `Cc1cc2c(cc1S(=O)(=O)N1CCN(c3ccccn3)CC1)n(C)c(=O)n2C`, the activity change, negative = inhibition in assay [1] was 0.642%; in assay [2], 0%; in assay [3] it was 1.33%; in assay [4] it was -6.07%; in assay [5] it was -0.108%.

Consider `O=C(Cc1cccc(F)c1)NCc1nnc2cc(-c3nc(C4CC4)no3)ccn12`, for which the activity change, negative = inhibition in assay [1] is -3.01%; in assay [2], -2.57%; in assay [3] it was 1.33%; in assay [4], -11.3%; in assay [5], -0.106%.

For the compound `CCc1ccc(-c2cc3n(n2)CC(C)(C(=O)NC2CCCCC2)N(CCN(C)C)C3=O)cc1` (stereo not given), the activity change, negative = inhibition in assay [1] turned out to be 1.89%; in assay [2], 2.87%; in assay [3], 4.77%; in assay [4], 1.56%; in assay [5] it was 0.851%.

Turning to `CCCN(CCC)CCCN1C(=O)c2cc3oc(C)cc3n2CC1(C)C(=O)NC1CCCCCC1` (stereo not given), the activity change, negative = inhibition in assay [1] was 0.223%; in assay [2], 0%; in assay [3] it was -5.56%; in assay [4], -2.64%; in assay [5], 0.243%.

For `O=c1c2ccccc2n2c(-c3cccc(F)c3)nnc2n1Cc1ccccc1`, the activity change, negative = inhibition in assay [1] is 1.3%; in assay [2], 23.7%; in assay [3], 3.78%; in assay [4], -0.355%; in assay [5], -3.31%.

As to `CN1C(=O)c2cc(C(=O)NCc3ccccn3)nn2CC1(C)C(=O)NC1CCCCCC1` (stereo not given), the activity change, negative = inhibition was determined as 3.23% in assay [1]; 0.392% in assay [2]; 11.5% in assay [3]; 11.4% in assay [4]; 7.03% in assay [5].

In the case of `CC1(C)CC[C@]2(C(=O)O[C@@H]3O[C@H](CO)[C@@H](O)[C@H](O)[C@H]3O)CC[C@]3(C)C(=CCC4[C@@]5(C)CC[C@H](O[C@@H]6O[C@H](C(=O)O)[C@@H](O)[C@H](O)[C@H]6O)[C@@](C)(CO)C5CC[C@]43C)C2C1` (stereo not given in full), the activity change, negative = inhibition in assay [1] is 5.72%; in assay [2], 2.71%; in assay [3], 5.81%; in assay [4], -12.3%; in assay [5], -1.67%.
